In the RNAGym collection of RNA variant scans (doi:10.7554/elife.90254) one finds self-cleavage data, which are given here for 56 variants.

Read counts are not given, so values of variants with three or more changes are uncertain.

The chains are these.
B1: LINE1-mini (parent)
chain: GGCAGAGCUCAACACAGCGUGGCAAAGUGGCUGUGGCUAGACUGCC

Variants of B1 are the subject of the data set. Description: self-cleavage, relative activity (ratio to wild type); higher = more cleavage; in vitro, sequencing; the parent is a self-cleaving ribozyme.
Regarding GGCAGAGCUCAACAUAGAGGGGCAAAGUGGCUGUGGCUAGACUGCC [C15U C18A U20G], the self-cleavage came out at 0.03.

For GGCAGAGCUCAACAGAGCGUGGCAAAAUGGCUGUUGCUAAACUGCC [C15G G27A G35U G40A], the self-cleavage was 0.

For GGCAGAGCUCAACAUAGCGUGGCAGAGUGGCUGAGGCUAGACUGCC [C15U A25G U34A], the self-cleavage came out at 0.08.

Take GGCAGAGCUCAACAUAGCGUGGCGAAGUGGCUGAGGCUAGACUUCU [C15U A24G U34A G44U C46U]: the self-cleavage amounted to 0.18.

Take GGCAGAGCUCAACAGAGCGUGCCAAAGUAGCUGUGGCCAGACUGCA [C15G G22C G29A U38C C46A]: the self-cleavage amounted to 0.01.

As to GGCAGAGCUCAACAUCGCGUGGCAAAGUGGCUGUGGCUAGACUGAC [C15U A16C C45A], the self-cleavage stood at 0.07.

As for GGCAGAGCUCAACAUAGCGUGGCAAUGUGGCUGUGGCUAGACAGCC [C15U A26U U43A], the self-cleavage came out at 0.2.

For the variant GGCAGAGCUCAACAGAGCGUGGCAAAGUAGCUCUGGCUAGACUACC [C15G G29A G33C G44A], the self-cleavage was found to be 0.03.

With GGCAGAGCUCAACAGAGCGCUGCAAAGUGGCUGUGGCUAGACUGCC [C15G U20C G21U], the self-cleavage came out at 0.02.

As for GGCAGAGCUCAACAGAGCGUGGCAAAGGGGCUGUAUCUAGACUGCC [C15G U28G G35A G36U], the self-cleavage was determined as 0.03.

With GGCAGAGCUCAACAGAGCGGGGCAAAGUGUCUGUGGCUACACUGCC [C15G U20G G30U G40C], the self-cleavage is 0.

In the case of GGCAGAGCUCAACAUAGUGUGGCAAAUUGGCAGUGGCUAGUCUGCC [C15U C18U G27U U32A A41U], the self-cleavage amounted to 0.04.

Turning to GGCAGAGCUCAACAGAGCGUGUCAAAGUGGCUCUGGCUAGACUGCA [C15G G22U G33C C46A], the self-cleavage turned out to be 0.35.

With GGCAGAGCUCAACAUGGCGUGGCAAAGUGGCUGUGGCUAGACUGAC [C15U A16G C45A], the self-cleavage was 0.15.

For the variant GGCAGAGCUCAACAGAGCGUCGCAAAGUGGCUGUGGCUAUACUGCC [C15G G21C G40U], the self-cleavage was found to be 0.04.

In the case of GGCAGAGCUCAACAUAGCGUGGCAAUGUGGCUGUGUCUAGACUGCC [C15U A26U G36U], the self-cleavage came out at 0.09.

With GGCAGAGCUCAACAGAGCGUGGCAAAGUGGCUGUGUCUAGACUACC [C15G G36U G44A], the self-cleavage is 0.02.

For the variant GGCAGAGCUCAACAGAGCGUGGCAAACUGGCUGUGGCUUGACUCCC [C15G G27C A39U G44C], the self-cleavage is 0.01.

On to GGCAGAGCUCAACAUGGCGUGGCAAAGUGACUGUGGCUAGACUGCC [C15U A16G G30A], for which the self-cleavage worked out at 0.02.

GGCAGAGCUCAACAGAGCGUGGCAAAGUGUCUGUGGUUAGACUGCC [C15G G30U C37U]: the self-cleavage amounted to 0.06.

Take GGCAGAGCUCAACAGAGCGUGGCAAAUUGGCUGUGGCUAUACUGCC [C15G G27U G40U]: the self-cleavage turned out to be 0.1.

Turning to GGCAGAGCUCAACAUUGCGUGGCAAAAUGGCUGUGGCUAGACUGCC [C15U A16U G27A], the self-cleavage came out at 0.18.

In the case of GGCAGAGCUCAACAUAGGGUUGCAAAUUGGCUGUGGCUAGACUGCC [C15U C18G G21U G27U], the self-cleavage worked out at 0.2.

Take GGCAGAGCUCAACAUAGCGUGGCAAGGUGGCUGUAGAUAGACUGGC [C15U A26G G35A C37A C45G]: the self-cleavage was 0.09.

On to GGCAGAGCUCAACAGAGCGUGGCAAAGUGGCUGUUGCAAGACCGCC [C15G G35U U38A U43C], for which the self-cleavage was 0.01.

Consider GGCAGAGCUCAACAUAGAGUGGCAAAGUGGCUGUGGGUAGACUGCC [C15U C18A C37G], for which the self-cleavage stood at 0.04.

For GGCAGAGCUCAACAGAGCGUGGCAAAUUGGCUGUGGGUAGACUCUC [C15G G27U C37G G44C C45U], the self-cleavage was 0.

As for GGCAGAGCUCAACAGAGCGUGUCCAAGUGGCUGUGGCUAGAUUGCC [C15G G22U A24C C42U], the self-cleavage stood at 0.01.

For GGCAGAGCUCAACAUAGCGUGGCAAUAUGGCUGUGGAUAGACUGCC [C15U A26U G27A C37A], the self-cleavage was 0.08.

Consider GGCAGAGCUCAACAGAGCGCGGCAAAGAGGCUGUGGCUAGACUGAC [C15G U20C U28A C45A], for which the self-cleavage is 0.02.

GGCAGAGCUCAACAGAGCGUUGCAAAGUGGCUGUGGCUAGACUCCC [C15G G21U G44C]: the self-cleavage turned out to be 0.03.

On to GGCAGAGCUCAACAGAGCGUGGCAAAGUGGCCGUGUCUAGACUGCC [C15G U32C G36U], for which the self-cleavage is 0.06.

On to GGCAGAGCUCAACAUGGCUUGGAAAAGUGGCUGUGGCUAGACUGCC [C15U A16G G19U C23A], for which the self-cleavage is 1.56.

For GGCAGAGCUCAACAUAGAGUGGCAAAGUGGCUGUGGCUAGAAUGCC [C15U C18A C42A], the self-cleavage amounted to 0.05.

Regarding GGCAGAGCUCAACAUAGCGUGGCAACGUGGAUGUGGCUAGACUGCC [C15U A26C C31A], the self-cleavage is 0.14.

For GGCAGAGCUCAACAUAGCGUGGCGAAUUAGCUGUGGCUAGACUGCC [C15U A24G G27U G29A], the self-cleavage is 0.66.

For the variant GGCAGAGCUCAACAGAGCGGGGCAAAGUGGCUGUGGCUAGACCGGC [C15G U20G U43C C45G], the self-cleavage amounted to 0.02.

For the variant GGCAGAGCUCAACAGAGCGUGGCAAAGUGGCACUGGCUAGACUGCC [C15G U32A G33C], the self-cleavage amounted to 0.15.

Take GGCAGAGCUCAACAGAGCGUCGCAAAGUGGCUGUGGCUAGACUCCC [C15G G21C G44C]: the self-cleavage worked out at 0.01.

In the case of GGCAGAGCUCAACAGAGCGUGACUAACUGGCUGUGGCUAAACUGCC [C15G G22A A24U G27C G40A], the self-cleavage came to 0.02.

As for GGCAGAGCUCAACAGAGCCUGGCAAAGUGGCUGUGGCUCGACUGCC [C15G G19C A39C], the self-cleavage came out at 0.02.

For GGCAGAGCUCAACAUAGCGUGGCCAAGUGGCUGUGGCUACACUCCC [C15U A24C G40C G44C], the self-cleavage is 0.19.

For GGCAGAGCUCAACAGAGCGUGGCAAAGUGGCUGUCGCUAGACCGCC [C15G G35C U43C], the self-cleavage was determined as 0.04.

In the case of GGCAGAGCUCAACAGAGCGUGGCAAAGUGGCUUUGGCUGGACUGCC [C15G G33U A39G], the self-cleavage was 0.02.

GGCAGAGCUCAACAGAGCGUAGCAAAGUUGCAGUGGCUAGACUGCC [C15G G21A G29U U32A]: the self-cleavage was 0.02.

For GGCAGAGCUCAACAUAGAGUGGCAAAGUGGCUGAGGCUAGACUGCC [C15U C18A U34A], the self-cleavage was determined as 0.03.

On to GGCAGAGCUCAACAUAGCGUGGCUAAGUCGGUGUGGCUAGGCUGCC [C15U A24U G29C C31G A41G], for which the self-cleavage is 0.17.

For the variant GGCAGAGCUCAACAGAGCGCGGCAAAGUGGCUGUGUCUAGACUGCC [C15G U20C G36U], the self-cleavage worked out at 0.03.

GGCAGAGCUCAACAUAGCGUGGCAUGGCGACUGUGGCUAGACUGCC [C15U A25U A26G U28C G30A]: the self-cleavage is 0.4.

For GGCAGAGCUCAACAGAGCGUUGAAAAGUGGCUGAGUCUAGACUGCC [C15G G21U C23A U34A G36U], the self-cleavage came out at 0.01.

For the variant GGCAGAGCUCAACAUAGCGUGGCAAAGUGGCUGUGGCUAGCCUGCG [C15U A41C C46G], the self-cleavage is 0.

GGCAGAGCUCAACAUAGCGUGGCAUAGUGGGUGUGGCUAGACUGCC [C15U A25U C31G]: the self-cleavage is 0.03.

Consider GGCAGAGCUCAACAGAGCGUGACAAAGUGGCUCUUGCUAGACUGCC [C15G G22A G33C G35U], for which the self-cleavage was 0.02.

With GGCAGAGCUCAACAUUGCGUGGUAAAGUGGCUAUGGCUAGACUGCC [C15U A16U C23U G33A], the self-cleavage is 0.09.

As to GGCAGAGCUCAACAUAGCGUGGCCAAGUGGCUGUGGCCGGACUGCC [C15U A24C U38C A39G], the self-cleavage amounted to 0.03.

With GGCAGAGCUCAACAGAGCGUGGCAAAGUGGCCGUGGCGAGACUGCC [C15G U32C U38G], the self-cleavage came out at 0.07.
